Laboratory results as given in the supplement of paper PMC8728848.
This is one part of the list.

Legend:
Assay in all cases: glycan array binding signal (z-score within array); higher = stronger binding
Settings in all cases: glycan notation: IUPAC condensed, linker removed
[1] = target: Fuc(a1-2)Gal(b1-4)GlcNAc(b1-2)[Fuc(a1-2)Gal(b1-4)GlcNAc(b1-4)]Man(a1-3)[Fuc(a1-2)Gal(b1-4)GlcNAc(b1-2)Man(a1-6)]Man(b1-4)GlcNAc(b1-4)GlcNAc
In short: (§1)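 Negative Z-scores can be read as non-binding. The Z-score is calculated within each array and then averaged across arrays of one protein sequence at different concentrations or buffers and across linkers. Arrays, 3228 in all, were curated from the Consortium for Functional Glycomics database and kept only where the protein sequence was available.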

[2] = target: Fuc(a1-2)Gal(b1-4)GlcNAc(b1-3)Gal(b1-4)GlcNAc
In short: as §1

[3] = target: Fuc(a1-2)Gal(b1-4)GlcNAc(b1-3)Gal(b1-4)GlcNAc(b1-2)Man(a1-3)[Fuc(a1-2)Gal(b1-4)GlcNAc(b1-3)Gal(b1-4)GlcNAc(b1-2)Man(a1-6)]Man(b1-4)GlcNAc(b1-4)GlcNAc
In short: as §1

[4] = target: Fuc(a1-2)Gal(b1-4)GlcNAc(b1-3)Gal(b1-4)GlcNAc(b1-3)Gal(b1-4)GlcNAc
In short: as §1

[5] = target: Fuc(a1-2)Gal(b1-4)GlcNAc(b1-3)GalNAc
In short: as §1

[6] = target: Fuc(a1-2)Gal(b1-4)GlcNAc(b1-3)[Fuc(a1-2)Gal(b1-4)GlcNAc(b1-6)]GalNAc
In short: as §1

[7] = target: Fuc(a1-2)Gal(b1-4)GlcNAc(b1-3)[Fuc(a1-3)[Gal(b1-4)]GlcNAc(b1-6)]Gal(b1-4)Glc
In short: as §1

[8] = target: Fuc(a1-2)Gal(b1-4)GlcNAc(b1-6)GalNAc
In short: as §1

[9] = target: Fuc(a1-2)Gal(b1-4)GlcNAc6S
In short: as §1

[10] = target: Fuc(a1-2)Gal(b1-4)[Fuc(a1-3)]GlcNAc
In short: as §1

[11] = target: Fuc(a1-2)Gal(b1-4)[Fuc(a1-3)]GlcNAc(b1-2)Man(a1-3)[Fuc(a1-2)Gal(b1-4)[Fuc(a1-3)]GlcNAc(b1-2)Man(a1-6)]Man(b1-4)GlcNAc(b1-4)GlcNAc
In short: as §1

[12] = target: Fuc(a1-2)Gal(b1-4)[Fuc(a1-3)]GlcNAc(b1-2)Man(a1-3)[Fuc(a1-2)Gal(b1-4)[Fuc(a1-3)]GlcNAc(b1-2)Man(a1-6)]Man(b1-4)GlcNAc(b1-4)[Fuc(a1-6)]GlcNAc
In short: as §1

[13] = target: Fuc(a1-2)Gal(b1-4)[Fuc(a1-3)]GlcNAc(b1-2)[Fuc(a1-2)Gal(b1-4)[Fuc(a1-3)]GlcNAc(b1-4)]Man(a1-3)[Fuc(a1-2)Gal(b1-4)[Fuc(a1-3)]GlcNAc(b1-2)Man(a1-6)]Man(b1-4)GlcNAc(b1-4)GlcNAc
In short: as §1

[14] = target: Fuc(a1-2)Gal(b1-4)[Fuc(a1-3)]GlcNAc(b1-3)Gal(b1-4)[Fuc(a1-3)]GlcNAc
In short: as §1

[15] = target: Fuc(a1-2)Gal(b1-4)[Fuc(a1-3)]GlcNAc(b1-3)Gal(b1-4)[Fuc(a1-3)]GlcNAc(b1-3)Gal(b1-4)[Fuc(a1-3)]GlcNAc
In short: as §1

[16] = target: Fuc(a1-2)Gal(b1-4)[Fuc(a1-3)]GlcNAc(b1-3)GalNAc
In short: as §1

[17] = target: Fuc(a1-2)Gal(b1-4)[Fuc(a1-3)]GlcNAc(b1-3)[Neu5Ac(a2-6)Gal(b1-4)GlcNAc(b1-6)]Gal(b1-4)Glc
In short: as §1

[18] = target: Fuc(a1-2)Gal3S(b1-4)GlcNAc
In short: as §1

[19] = target: Fuc(a1-2)Gal6S(b1-3)GlcNAc
In short: as §1

[20] = target: Fuc(a1-2)Gal6S(b1-3)GlcNAc6S
In short: as §1

Fuc(a1-2)Gal6S(b1-4)Glc = target: Fuc(a1-2)Gal6S(b1-4)Glc
In short: as §1

[21] = target: Fuc(a1-2)Gal6S(b1-4)Glc6S
In short: as §1

[22] = target: Fuc(a1-2)Gal6S(b1-4)GlcNAc
In short: as §1

Fuc(a1-2)[Gal(a1-3)]Gal = target: Fuc(a1-2)[Gal(a1-3)]Gal
In short: as §1

[23] = target: Fuc(a1-2)[Gal(a1-3)]Gal(b1-3)GalNAc
In short: as §1

[24] = target: Fuc(a1-2)[Gal(a1-3)]Gal(b1-3)GalNAc(b1-3)Gal(a1-4)Gal(b1-4)Glc
In short: as §1

[25] = target: Fuc(a1-2)[Gal(a1-3)]Gal(b1-3)GlcNAc
In short: as §1

[26] = target: Fuc(a1-2)[Gal(a1-3)]Gal(b1-3)GlcNAc(b1-2)Man(a1-3)[Fuc(a1-2)[Gal(a1-3)]Gal(b1-3)GlcNAc(b1-2)Man(a1-6)]Man(b1-4)GlcNAc(b1-4)GlcNAc
In short: as §1

[27] = target: Fuc(a1-2)[Gal(a1-3)]Gal(b1-3)GlcNAc(b1-2)Man(a1-3)[Fuc(a1-2)[Gal(a1-3)]Gal(b1-3)GlcNAc(b1-2)Man(a1-6)]Man(b1-4)GlcNAc(b1-4)[Fuc(a1-6)]GlcNAc
In short: as §1

[28] = target: Fuc(a1-2)[Gal(a1-3)]Gal(b1-3)GlcNAc(b1-3)GalNAc
In short: as §1

[29] = target: Fuc(a1-2)[Gal(a1-3)]Gal(b1-3)GlcNAc(b1-6)GalNAc
In short: as §1

[30] = target: Fuc(a1-2)[Gal(a1-3)]Gal(b1-4)Glc
In short: as §1

[31] = target: Fuc(a1-2)[Gal(a1-3)]Gal(b1-4)GlcNAc
In short: as §1

[32] = target: Fuc(a1-2)[Gal(a1-3)]Gal(b1-4)GlcNAc(b1-2)Man
In short: as §1

[33] = target: Fuc(a1-2)[Gal(a1-3)]Gal(b1-4)GlcNAc(b1-2)Man(a1-3)[Fuc(a1-2)[Gal(a1-3)]Gal(b1-4)GlcNAc(b1-2)Man(a1-6)]Man(b1-4)GlcNAc(b1-4)GlcNAc
In short: as §1

[34] = target: Fuc(a1-2)[Gal(a1-3)]Gal(b1-4)GlcNAc(b1-2)Man(a1-3)[Fuc(a1-2)[Gal(a1-3)]Gal(b1-4)GlcNAc(b1-2)Man(a1-6)]Man(b1-4)GlcNAc(b1-4)[Fuc(a1-6)]GlcNAc
In short: as §1

[35] = target: Fuc(a1-2)[Gal(a1-3)]Gal(b1-4)GlcNAc(b1-3)GalNAc
In short: as §1

[36] = target: Fuc(a1-2)[Gal(a1-3)]Gal(b1-4)GlcNAc(b1-3)[Fuc(a1-2)[Gal(a1-3)]Gal(b1-4)GlcNAc(b1-6)]GalNAc
In short: as §1

[37] = target: Fuc(a1-2)[Gal(a1-3)]Gal(b1-4)GlcNAc(b1-6)GalNAc
In short: as §1

[38] = target: Fuc(a1-2)[Gal(a1-3)]Gal(b1-4)[Fuc(a1-3)]Glc
In short: as §1

[39] = target: Fuc(a1-2)[Gal(a1-3)]Gal(b1-4)[Fuc(a1-3)]GlcNAc
In short: as §1

[40] = target: Fuc(a1-2)[Gal(a1-3)]Gal(b1-4)[Fuc(a1-3)]GlcNAc(b1-3)GalNAc
In short: as §1

[41] = target: Fuc(a1-2)[Gal(a1-4)]Gal(b1-4)GlcNAc
In short: as §1

[42] = target: Fuc(a1-2)[GalNAc(a1-3)]Gal
In short: as §1

[43] = target: Fuc(a1-2)[GalNAc(a1-3)]Gal(b1-3)GalNAc(a1-3)[Fuc(a1-2)]Gal(b1-4)GlcNAc
In short: as §1

B1: PpFlo1 (Pichia pastoris) (protein)
chain: MGSSHHHHHHSSGLVPRGSHMQESGDGDISDSAYACDIDATRYDGFNATIYEFQPGDGRLTRDPVFMSTGYLNRTQLHSITGVTDPGFSIYTPGVPTTTLYGIPNVNWENLLLELKGYFRAEVSGDYGLSLRNIDDSAILFFGKETAFQCCNENSISNEASTDYSLFTIFRQEGDETTNLDSFTYTQYLEAGKYYPVRTFFVNIERHAVFNFTMTLPDGTELTDFHNYIYQFGALDEEQCQA
glycan array binding signal (z-score) [1]: -0.004 | glycan array binding signal (z-score) [2]: -0.549 | glycan array binding signal (z-score) [3]: 0.179 | glycan array binding signal (z-score) [4]: -0.392 | glycan array binding signal (z-score) [5]: 9.01 | glycan array binding signal (z-score) [6]: 0.265 | glycan array binding signal (z-score) [7]: -0.112 | glycan array binding signal (z-score) [8]: -0.281 | glycan array binding signal (z-score) [9]: -0.106 | glycan array binding signal (z-score) [10]: 0.142 | glycan array binding signal (z-score) [11]: 0.317 | glycan array binding signal (z-score) [12]: 0.805 | glycan array binding signal (z-score) [13]: 0.16 | glycan array binding signal (z-score) [14]: -0.253 | glycan array binding signal (z-score) [15]: 0.218 | glycan array binding signal (z-score) [16]: 0.492 | glycan array binding signal (z-score) [17]: -0.279 | glycan array binding signal (z-score) [18]: -0.794 | glycan array binding signal (z-score) [19]: -0.003 | glycan array binding signal (z-score) [20]: 0.088 | glycan array binding signal (z-score) (Fuc(a1-2)Gal6S(b1-4)Glc): -0.377 | glycan array binding signal (z-score) [21]: -0.232 | glycan array binding signal (z-score) [22]: -0.6 | glycan array binding signal (z-score) (Fuc(a1-2)[Gal(a1-3)]Gal): -0.335 | glycan array binding signal (z-score) [23]: 0.182 | glycan array binding signal (z-score) [24]: -0.456 | glycan array binding signal (z-score) [25]: 0.334 | glycan array binding signal (z-score) [26]: -0.28 | glycan array binding signal (z-score) [27]: -0.286 | glycan array binding signal (z-score) [28]: -0.494 | glycan array binding signal (z-score) [29]: -0.381 | glycan array binding signal (z-score) [30]: -0.509 | glycan array binding signal (z-score) [31]: -0.455 | glycan array binding signal (z-score) [32]: 0.18 | glycan array binding signal (z-score) [33]: 0.149 | glycan array binding signal (z-score) [34]: -0.568 | glycan array binding signal (z-score) [35]: 0.31 | glycan array binding signal (z-score) [36]: 0.144 | glycan array binding signal (z-score) [37]: -0.228 | glycan array binding signal (z-score) [38]: -0.388 | glycan array binding signal (z-score) [39]: -0.266 | glycan array binding signal (z-score) [40]: 1.04 | glycan array binding signal (z-score) [41]: 0.178 | glycan array binding signal (z-score) [42]: -0.206 | glycan array binding signal (z-score) [43]: -0.222
